± gives the standard deviation. Whole data set: some 3,700 sequences, median “pre-steady-state target cleavage rate” near 0.02, cut for the highest 2% near 0.23. This is a selection; strong and weak results do not stand in their true shares.
These sequences were tested on MILI (PIWIL2) piRISC loaded with Kctd7 piRNA (26 nt) (assay: pre-steady-state target cleavage rate (min^-1); MIWI and MILI are mouse PIWI proteins and EfPiwi is from a freshwater sponge; tags in brackets are library labels; higher = faster piRNA-guided slicing of the target). Conditions: guide: Kctd7 piRNA 5'p-UGUUAAUCUCUCAGAGAAGGUGACAG; auxiliary factor: 500 nM mouse GTSF1.
Method in brief: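 Cleave-'n-Seq reactions paired 0.1 nM transcribed, DNA-blocked target RNA library with 1 nM active affinity-purified piRISC holding one synthetic guide, plus or minus 500 nM GTSF1 partner protein, in HEPES–potassium acetate buffer at 33 °C for 0–8 or 0–960 min. After sequencing of uncleaved targets and normalisation to depth and weakly complementary targets, the pre-steady-state cleavage rate was taken from a burst-and-steady-state fit. Three trials were pooled, and k3 was capped at 0.0001 min^-1.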
With UAGUGACACACCUUCUCUGAGAGAUUAAA the “pre-steady-state target cleavage rate” value was 0.142 ± 0.047.
For UAGUGACACACCUUCUGUGUGAGAUUAACA, the “pre-steady-state target cleavage rate” value was 0.0438 ± 0.011.
With UAGUGUGUCACGCUUCUCUGAGAGAUUAACA the “pre-steady-state target cleavage rate” value was 0.0959 ± 0.012.
For UAGUGACAGUGGAAGAGACAGAGACUUAACA, the “pre-steady-state target cleavage rate” value was < 0.0001.
For UAGUGACACACUUCUCUGAGAGAUUAACA, the “pre-steady-state target cleavage rate” value was 0.0505 ± 0.0059.
In the case of UAGUGUGUCACCUUGUCUGAGAGAUUUACA, the “pre-steady-state target cleavage rate” value is reported as 0.0644 ± 0.023.
For UAGUCUGUCACCAUCUCUGAGACAUUAACA, the “pre-steady-state target cleavage rate” value was 0.0315 ± 0.004.
For UAGUGACAGUCCAUCUCUCAGAGAUUAACA, the “pre-steady-state target cleavage rate” value was 0.00455 ± 0.0032.
For UAGUCUCGUCACCUUCUCUGAGAGAUUAACA, the “pre-steady-state target cleavage rate” value was 0.209 ± 0.012.
With UAGUGAGUGACCUUCUGUGAGAGAUUAACA the “pre-steady-state target cleavage rate” value was 0.128 ± 0.017.
In the case of UAGUCUGUCACCUUCUCUGAGACUUUAACA, the “pre-steady-state target cleavage rate” value is reported as 0.00995 ± 0.005.
With UAGUGAGUCACCUUCUGUCAGAGAUUAACA the “pre-steady-state target cleavage rate” value was 0.0388 ± 0.0074.
For UAGUGAGUCACCUUCUCUGACAGAUUAUCA, the “pre-steady-state target cleavage rate” value was 0.0134 ± 0.007.
With UAGUGACUCACCUUCUCUGUGAGAUUAACA the “pre-steady-state target cleavage rate” value was 0.0401 ± 0.0041.
In the case of UAGUGACAGACCUCUCUGAGAGAUUAACA, the “pre-steady-state target cleavage rate” value is reported as 0.0169 ± 0.0073.
For UAGUGAGACACCUUCUCUGAGACAUUAACA, the “pre-steady-state target cleavage rate” value was 0.0446 ± 0.0096.
For UAGUGACAGACCUUCUGUGAGAGUUUAACA, the “pre-steady-state target cleavage rate” value was 0.0388 ± 0.0085.
With UAGUGAGUCACCUUCUGUGAGAGAUUAAGA the “pre-steady-state target cleavage rate” value was 0.0567 ± 0.02.
For UAGUGUGUGACCUUCUCUGAGAGAUAAACA, the “pre-steady-state target cleavage rate” value was 0.0935 ± 0.029.
UAGUGAGUCACCUUCUCUGAGAGAUAUACA was tested, and the “pre-steady-state target cleavage rate” value was 0.0915 ± 0.025.
In the case of UAGUGACAGUGGAUCUGUGAGAGAUUUACA, the “pre-steady-state target cleavage rate” value is reported as < 0.0001.
UAGUGACUCAGGUUCUCUGAGAGAUUAACA was tested, and the “pre-steady-state target cleavage rate” value was 0.0267 ± 0.0065.
For UAGUGACUCACCUCCUCUGAGAGAUUAACA, the “pre-steady-state target cleavage rate” value was 0.14 ± 0.011.
UAGUGACAGUGGAAGAGUGACAGUUUAACA was tested, and the “pre-steady-state target cleavage rate” value was < 0.0001.
For UAGUGACACACCUACUCUGAGAGAUUAAGA, the “pre-steady-state target cleavage rate” value was 0.0352 ± 0.013.
UAGUGACACACCUUCUCUGAGAGAUUUUCA was tested, and the “pre-steady-state target cleavage rate” value was 0.064 ± 0.02.
In the case of UAGUGACAGUCCUUCUCUGAGAAGAUUAACA, the “pre-steady-state target cleavage rate” value is reported as 0.0106 ± 0.0029.
In the case of UAGUGUGUCACCUUCUCUCAGUGAUUAACA, the “pre-steady-state target cleavage rate” value is reported as 0.00624 ± 0.0036.
With UAGUGACUCACCUACUCUCAGAGAUUAACA the “pre-steady-state target cleavage rate” value was 0.0256 ± 0.0037.
With UAGUGUGUCACCUUACUCUGAGAGAUUAACA the “pre-steady-state target cleavage rate” value was 0.104 ± 0.0082.
With UAGUCAGUCACCUUCUCUGAGAGAUUUACA the “pre-steady-state target cleavage rate” value was 0.172 ± 0.024.
UAGUCUGUCACCUUCUCUGAGAGAGUUAACA was tested, and the “pre-steady-state target cleavage rate” value was 0.297 ± 0.035.
With UAGUGACACACCUUCUCUGCGAGAUUAACA the “pre-steady-state target cleavage rate” value was 0.0905 ± 0.017.
With UAGUGACACACGUUCUCUGUGAGAUUAACA the “pre-steady-state target cleavage rate” value was 0.0289 ± 0.0047.
In the case of UAGUGACUCACCUUCUCUGAGAGAUUAACCA, the “pre-steady-state target cleavage rate” value is reported as 0.121 ± 0.0086.
For UAGUGAGUCACGAUCUCUGAGAGAUUAAGA, the “pre-steady-state target cleavage rate” value was 0.0429 ± 0.013.
With UAGUCUGUCAGCAUCUCUGAGAGAUUAACA the “pre-steady-state target cleavage rate” value was 0.112 ± 0.0069.
For UAGUGACAGUCCUUCACUGAGACAUUAACA, the “pre-steady-state target cleavage rate” value was 0.00652 ± 0.0032.
For UAGUGACAGUGGUUAUCUGAGAGAUUAACA, the “pre-steady-state target cleavage rate” value was 0.00401 ± 0.0025.
UAGUGUGUGACCUUCUCUGAGAGAUUAUCA was tested, and the “pre-steady-state target cleavage rate” value was 0.0873 ± 0.019.
For UAGUGACUCUCCUUCUCUGAGAGAUUUACA, the “pre-steady-state target cleavage rate” value was 0.082 ± 0.013.
UAGUGUGUCACCUUCUUCUGAGAGAUUAACA was tested, and the “pre-steady-state target cleavage rate” value was 0.039 ± 0.011.
UAGUGACAGUGGUUCUCUGAGGGAUUAACA was tested, and the “pre-steady-state target cleavage rate” value was 0.00379 ± 0.0018.
UAGUGACACACCUUCACUGAGAGUUUAACA was tested, and the “pre-steady-state target cleavage rate” value was 0.0427 ± 0.017.
In the case of UAGUCUGUCACCUUCUCUGAGAGAUUACCA, the “pre-steady-state target cleavage rate” value is reported as 0.163 ± 0.03.
For UAGUCUCUCACCUUCUCUGUGAGAUUAACA, the “pre-steady-state target cleavage rate” value was 0.0394 ± 0.0057.
UAGUGACACACCUUCUCAGAGAGAUUAUCA was tested, and the “pre-steady-state target cleavage rate” value was 0.0524 ± 0.017.
For UAGUGAGUCACAUUCUCUGAGAGAUUAACA, the “pre-steady-state target cleavage rate” value was 0.183 ± 0.014.
For UAGUGUGUCACCUUCUCAGAGAGAUUAAGA, the “pre-steady-state target cleavage rate” value was 0.106 ± 0.028.
UAGUGACAGACCUUCUCUGAUGAGAUUAACA was tested, and the “pre-steady-state target cleavage rate” value was 0.00458 ± 0.0044.
UAGUCAGUCACCUUCACUGAGAGAUUAACA was tested, and the “pre-steady-state target cleavage rate” value was 0.15 ± 0.017.
UAGUGACUCACCUUCUGUGAGAGAUUAUCA was tested, and the “pre-steady-state target cleavage rate” value was 0.00563 ± 0.0023.
In the case of UAGUGACUGCACCUUCUCUGAGAGAUUAACA, the “pre-steady-state target cleavage rate” value is reported as 0.184 ± 0.011.
UAGUCUGUCUGGUUCUCUGAGAGAUUAAGA was tested, and the “pre-steady-state target cleavage rate” value was 0.0119 ± 0.0022.
With UAGUGACUCACCUUCUCUGAAAGAUUAACA the “pre-steady-state target cleavage rate” value was 0.0754 ± 0.008.
In the case of UAGUGACAGACCUACUCUGACAGAUUAACA, the “pre-steady-state target cleavage rate” value is reported as 0.00701 ± 0.0032.
With UAGUGACUCACCUUCCUGAGAGAUUAACA the “pre-steady-state target cleavage rate” value was 0.00513 ± 0.0042.
With UAGUGUGUCACCUUCUCUCAGAGAAUAACA the “pre-steady-state target cleavage rate” value was 0.00934 ± 0.0054.
For UAGUGACACACCUUCUCAGAGAGAUUAACA, the “pre-steady-state target cleavage rate” value was 0.14 ± 0.019.
UAGUGACACACCUUGUCUCAGAGAUUAACA was tested, and the “pre-steady-state target cleavage rate” value was 0.0231 ± 0.0047.
With UAGUGACAGUGGAACUCUGAGAGAUUAUGA the “pre-steady-state target cleavage rate” value was < 0.0001.
For “UAGUGACAGUCCUUCUCUCUCUCUAAUUGA [g13:g20:cont:t1A]”, the “pre-steady-state target cleavage rate” value was < 0.0001.
With UAGUGACAGUGCUUCACUGAGAGAUUUACA the “pre-steady-state target cleavage rate” value was 0.0125 ± 0.0064.
UAGUGACAGUCGUUCUCUGAGAGUUUAACA was tested, and the “pre-steady-state target cleavage rate” value was 0.00649 ± 0.0029.
With UAGUCUGUCACCUUCUCAGAGAGAUUAUCA the “pre-steady-state target cleavage rate” value was 0.153 ± 0.034.
UAGUGACUCACCUUCUCUGAGAGAUAUAACA was tested, and the “pre-steady-state target cleavage rate” value was 0.141 ± 0.017.
For UAGUGACAGUCCUUCUCAGACAGAUUAACA, the “pre-steady-state target cleavage rate” value was 0.00382 ± 0.0027.
In the case of UAGUGACACACCUUCUGUGAGAGAUUAACA, the “pre-steady-state target cleavage rate” value is reported as 0.142 ± 0.017.
With UAGUGACACACCUUCUCUCAGAGAUUAAGA the “pre-steady-state target cleavage rate” value was 0.00667 ± 0.0052.
In the case of UAGUGACACACCUUCUCUGAGGAGAUUAACA, the “pre-steady-state target cleavage rate” value is reported as 0.00946 ± 0.0049.
In the case of UAGUGACUCAUCUUCUCUGAGAGAUUAACA, the “pre-steady-state target cleavage rate” value is reported as 0.189 ± 0.013.
With UAGUGACAGUGGUUCUCUGAGAGAUUAAUA the “pre-steady-state target cleavage rate” value was 0.00332 ± 0.0022.
